Reference: PubChem BioAssay AID596 (National Center for Advancing Translational Sciences (NCATS), 2007)
The whole screen tested about 71,000 compounds, of which about 1,400 (2%) were called active. This list was built around the results that the source calls inconclusive (neither active nor inactive); the mix of calls is not that of the screen. The call rests on the fitted dose curve; in most records, active means well fitted curve in the direction sought with a large enough effect; inconclusive means small, poorly fitted or top-dose-only effect; inactive means no such curve, though single readings can be large or run the other way. Potencies of inconclusive entries are doubtful fits and often do not repeat. More than one record can exist for a structure, and the calls need not agree.

biological target: Microtubule-associated protein tau (Homo sapiens) (UniProt P10636); experiment: qHTS Assay for Tau Filament Binding; settings: recombinant tau filaments, thioflavin S fluorescence, 15 h, filaments grown with octadecylsulfate alongside compound; series mostly up to 57.1 µM;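 further: actives lower thioflavin S fluorescence by blocking filaments or displacing dye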
UniProt P10636, sequence (P10636 whole entry, looked up): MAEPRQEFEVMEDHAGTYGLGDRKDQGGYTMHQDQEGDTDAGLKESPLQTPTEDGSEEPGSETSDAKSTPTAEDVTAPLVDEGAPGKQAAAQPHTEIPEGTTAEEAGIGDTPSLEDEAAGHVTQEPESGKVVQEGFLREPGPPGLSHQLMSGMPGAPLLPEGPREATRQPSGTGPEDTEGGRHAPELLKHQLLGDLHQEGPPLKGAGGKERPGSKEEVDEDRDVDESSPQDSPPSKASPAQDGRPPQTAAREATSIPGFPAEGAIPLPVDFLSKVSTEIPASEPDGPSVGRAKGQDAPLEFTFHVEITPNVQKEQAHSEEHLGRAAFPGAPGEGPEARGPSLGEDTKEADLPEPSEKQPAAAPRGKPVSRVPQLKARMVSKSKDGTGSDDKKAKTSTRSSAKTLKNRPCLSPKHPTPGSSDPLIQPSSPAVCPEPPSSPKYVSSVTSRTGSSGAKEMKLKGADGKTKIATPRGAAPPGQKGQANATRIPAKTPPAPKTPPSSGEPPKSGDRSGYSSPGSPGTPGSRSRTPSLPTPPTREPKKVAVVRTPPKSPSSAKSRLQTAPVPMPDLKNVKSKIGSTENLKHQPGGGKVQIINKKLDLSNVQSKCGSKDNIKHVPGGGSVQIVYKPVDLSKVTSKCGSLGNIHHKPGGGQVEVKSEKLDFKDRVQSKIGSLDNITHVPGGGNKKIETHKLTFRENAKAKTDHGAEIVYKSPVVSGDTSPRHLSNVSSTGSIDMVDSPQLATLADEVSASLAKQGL
Summary of the method: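 Recombinant tau protein (human, 1 uM final) plus 30 uM ODS in HEPES pH 7.4 with NaCl, DTT and thioflavine S. Compound present from the start; fluorescence at 510 nm after 15 h, 37 C.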
On the % scale 0 is the no-effect control and ±100 the full control effect; potency means the concentration at half of the fitted maximal effect.

SMILES | Potency | activity change, negative = inhibition
CCCCCCCCCCCCC(=O)N1CCCC[C@H]1CNC(=O)[C@@H](N)CCCCN | inconclusive: 39.8 µM [decreasing] | 
COc1ccc(N2CCN(S(=O)(=O)c3ccc(OC)cc3)CC2)cc1 | inconclusive: 3.16 µM [decreasing] | 
c1ccc(CN(CC2=NCCN2)c2ccccc2)cc1 | inconclusive: 39.8 µM [decreasing] | 
CC(C)(C)c1ccc(-c2noc(CCC(N)=O)n2)cc1 | inactive | 
CCCCC(CC)Cn1c2nc3ccccc3nc2c2c(=N)oc(C)nc21 (stereo not drawn) | active: 2.51 µM | 
O=C(NC1CCCC1)c1ccc(CS(=O)(=O)c2ccc(Br)cc2)o1 | inconclusive: 39.8 µM [decreasing] | 
CCCSc1nc(C)c(-c2csc(C(C#N)=C3CCCC3)n2)cc1C#N | active: 15.8 µM | 
COc1cccc(Cn2c(=O)cnc3cnc(Oc4cccc(Cl)c4)nc32)c1 | inconclusive: 25.1 µM [decreasing] | 
NC(=O)c1cccc(N)c1 | inconclusive: 39.8 µM [decreasing] | 
O=C(CC1=NCCNC(c2ccccc2)C1)c1ccccc1O (stereo not drawn) | inconclusive: 31.6 µM [decreasing] | 
Cc1cnn(-c2nc(-c3cccs3)cc(C(F)(F)F)n2)c1 | inconclusive: 31.6 µM [decreasing] | 
O=c1c(-c2cc(F)cc(F)c2)nc2cncnc2n1Cc1ccc(F)cc1 | inconclusive: 3.98 µM [decreasing] | 
COc1ccccc1CCn1c(=O)c(-c2ccc(Cl)cc2)nc2cncnc21 | active: 12.6 µM | 
NC(=O)N[C@H](CC(=O)O)C(=O)O |  | inactive: -5.6% [at 11.4 µM]
O=S(=O)(O)c1cc(N=Nc2cccc3ccccc23)c(O)c2ncccc12 | inconclusive: 3.16 µM [decreasing] | 
CCCOc1ccccc1-c1nc2n[nH]nc2c(=O)[nH]1 | inconclusive: 39.8 µM [decreasing] | 
CCOC(=O)c1cnc2c(C#N)c(C)nn2c1-c1ccccc1 | active: 15.8 µM | 
O=C(c1ccco1)N1CCN(C(=O)c2cc(-c3ccccn3)nc3ccc(Cl)cc23)CC1 | active: 10 µM | 
CCCCC(C=O)NC(=O)C(CC(C)C)NC(=O)OCc1ccccc1 (stereo not drawn) | inconclusive: 39.8 µM [decreasing] | 
Cc1nc2ccccc2c2c1C(=O)N(C)C2=O | inconclusive: 39.8 µM [decreasing] | 
O=[N+]([O-])c1cccc2c[nH]nc12 | inconclusive: 39.8 µM [decreasing] | 

SMILES | Potency | activity change, negative = inhibition
Cn1c(=O)c(-c2cc(F)cc(F)c2)nc2cnc(N3CCNCC3)nc21 | active: 5.01 µM | 
O=C(CSc1nnnn1-c1ccc2c(c1)OCCO2)c1cccc2c1OCCO2 | inconclusive: 31.6 µM [decreasing] | 
CN1[C@H]2CC(OC(=O)[C@H](CO)c3ccccc3)C[C@H]1[C@H]1O[C@H]12 (stereo partly drawn) | inactive | 
CN(C)c1ccc(C2=NOC(CN3C(=O)c4ccccc4S3(=O)=O)C2)cc1 (stereo not drawn) | inconclusive: 15.8 µM [decreasing] | 
Cc1nc(-c2ccccc2)sc1C(N)=O | inactive | 
C[C@@H](CC(=O)O)[C@@H](N)C(=O)O | inconclusive: 39.8 µM [decreasing] | 
CCOCCCNCC(=O)Nc1ccc(OC(F)(F)F)cc1 | inconclusive: 20 µM [decreasing] | 
Cc1csc(NC(=O)CCc2nc3ccccc3s2)n1 | inconclusive: 31.6 µM [decreasing] | 
c1ncc(CC2CCNCC2)[nH]1 | inconclusive: 39.8 µM [decreasing] | 
NCCNC(=O)c1ccc(Cl)cc1 | inconclusive: 39.8 µM [decreasing] | 
COC(=O)c1c(NC(=O)CN2CCN(Cc3ccc4c(c3)OCO4)CC2)sc(C)c1C | inactive | 
CCOC(=O)CSc1nc2ccccc2n1CC(=O)N(C(C)C)C(C)C | inactive | 
N#CC1=C(N)N(c2ccccc2C#N)C2=C(C(=O)CCC2)C1c1ccsc1 (stereo not drawn) | inconclusive: 25.1 µM [decreasing] | 
COc1ccc(C(=O)Oc2c(CN3CCOCC3)cc(Cl)c3cccnc23)cc1 | inactive | 
Cc1c(N=C/C=C2\N(C)c3ccccc3C2(C)C)c(=O)n(-c2ccccc2)n1C | active: 1 µM | 
CC1CCc2nn(CC(=O)NCCCN3CCCCC3)cc2C1 (stereo not drawn) | inactive | 
C[C@@H]1C[C@H]2[C@@H]3C[C@H](F)C4=CC(=O)C=C[C@@]4(C)[C@]3(F)[C@H](O)C[C@]2(C)[C@@]1(O)C(=O)CO | inconclusive: 12.6 µM [decreasing] | 
Cc1cccc(OCCCCc2c(C)n[nH]c2C)c1 | inconclusive: 31.6 µM [decreasing] | 
COCn1c(-c2ccc(OC)c(OC)c2)nc2ccccc21 |  | inactive: -2.8% [at 11.4 µM]
O=C(N1CCOCC1)N1CCN(c2nc(-c3ccc(F)cc3)cs2)CC1 | inactive | 
COc1ccc(Oc2ncc3nc(-c4cccc(C#N)c4)c(=O)n(Cc4cccc(OC)c4)c3n2)cc1 | active: 10 µM | 

SMILES | Potency | activity change, negative = inhibition
O=C(CSc1nc2ccccc2c(=O)n1Cc1ccco1)NCc1ccccc1 | inactive | 
CCn1c2ccccc2c2cc(NC(=O)Cc3ccc(S(=O)(=O)N4CCOCC4)s3)ccc21 | active: 6.31 µM | 
CCOC(=O)Nc1ccc2c(c1)N(C(=O)OCCN(C)C)c1ccccc1CC2 | inconclusive: 12.6 µM [decreasing] | 
NN(CC(=O)O)CC(=O)O |  | inactive: 1.5% [at 11.4 µM]
COc1cccc2c1C(=O)c1c(O)c3c(c(O)c1C2=O)C[C@](O)(C(=O)CO)C[C@H]3O[C@@H]1C[C@H](N)[C@H](O)[C@H](C)O1 | active: 5.01 µM | 
O=c1[nH]c(NCCCO)nc2c1C1(CCCC1)Cc1ccccc1-2 | inconclusive: 31.6 µM [decreasing] | 
O=C(Nc1ccc(-n2nncc2-c2ccco2)cc1)c1cccc(F)c1 | inconclusive: 12.6 µM [decreasing] | 
COCCN(CCOC)c1nc(C)nc2c1nc(-c1ccccc1)n2CCN1CCOCC1 | inactive | 
c1ccc2nc(C3=NCCN3)ccc2c1 | inconclusive: 39.8 µM [decreasing] | 
Cc1cc(C)n2c(SC/C(O)=C(\C#N)c3nc4ccccc4[nH]3)nnc2n1 | active: 10 µM | 
CC[C@]1(c2ncc[nH]2)Cc2ccccc2O1 | inconclusive: 39.8 µM [decreasing] | 
COCC(=O)N1CCC2(CCN(Cc3ccccc3)CC2)CC1 | inactive | 
CC(C)(C)c1cc(C(=S)N2CCN(CCO)CC2)cc(C(C)(C)C)c1O | inconclusive: 39.8 µM [decreasing] | 
Cc1c(N=C/C=C/c2ccccc2)c(=O)n(-c2ccccc2)n1C | inactive | 
COC(=O)c1ccc(CSc2nc3ccccc3o2)cc1 | inactive | 
CCc1nnc(NC(=O)c2cccc(S(=O)(=O)N3CCN(c4ccccc4)CC3)c2)s1 | inconclusive: 31.6 µM [decreasing] | 
N/N=C1/c2ccccc2N[C@H]1OC(=O)Nc1cccc(Cl)c1 | inconclusive: 3.16 µM [decreasing] | 
COc1ccc(Cn2c3nc4ccccc4nc3c3c(=O)n(Cc4ccco4)cnc32)cc1 | active: 15.8 µM | 
CC(C)c1ccc2c(c1)c(SC(C)(C)C)c(CC(C)(C)C(=O)O)n2Cc1ccc(Cl)cc1 | inconclusive: 39.8 µM [decreasing] | 
O=C(O)c1ccc([N+](=O)[O-])c(P(=O)(O)O)c1 |  | inactive: 9.1% [at 11.4 µM]
CC(C)C[C@@H](CC(=O)N[C@@H](CCCN)CC(=O)N[C@@H]1CCNC[C@H]1C(=O)N[C@H](CC(=O)N[C@@H](CCC(=O)O)CC(=O)O)CC(C)C)NC(=O)[C@@H]1CCCC[C@H]1N | inactive | 

SMILES | Potency | activity change, negative = inhibition
CCc1ccc(-c2nc(CN3CCC(C(=O)NCCN(CC)c4ccccc4)CC3)c(C)o2)cc1 | inconclusive: 2 µM [decreasing] | 
COc1cccc(C(=O)Nc2ccc(N(C)C)cc2)c1OC | inconclusive: 31.6 µM [decreasing] | 
Clc1ccc(-c2ccc(-c3nn4c(-c5ccco5)nnc4s3)o2)cc1 | active: 25.1 µM | 
CCOC(=O)Cc1nc2ccccc2[nH]1 | inactive | 
CN(C)c1ccc(C(=C2C=CC(=[N+](C)C)C=C2)c2ccc(N(C)C)cc2)cc1 | active: 0.126 µM | 
CC(=C1C(=O)c2ccccc2C1=O)N1CCc2ccccc2C1 | inconclusive: 39.8 µM [decreasing] | 
Clc1ccc(N2CCN(Cc3c[nH]c4ncccc34)CC2)cc1 | active: 39.8 µM | 
COc1cccc(Nc2ncc3nc(C)c(=O)n(C4CC4)c3n2)c1 | inactive | 
Cc1nc(C)c(C(=O)Nc2ccc(C)c(F)c2)o1 | inconclusive: 3.16 µM [decreasing] | 
CCc1ccc(NC(=O)NCCN2CCc3ccccc3C2)cc1 | active: 12.6 µM | 
Nc1nc(-c2cccs2)c(NC(=O)c2ccccc2)s1 | inactive | 
COc1cc(N)c(Cl)cc1C(=O)N[C@H]1CCN(CCCOc2ccc(F)cc2)C[C@@H]1OC | inconclusive: 39.8 µM [decreasing] | 
COc1ccccc1N1CCN(CCCCN2C(=O)CCC2=O)CC1 | inconclusive: 39.8 µM [decreasing] | 
Oc1[nH]c2ccccc2c1/C=N/c1nccs1 | active: 12.6 µM | 
COc1ccc(CCNC(=O)c2cc3c(=O)n4cccc(C)c4nc3n(Cc3ccncc3)c2=N)cc1 | active: 3.16 µM | 
CCCCC=O | inactive | 
CC1(c2ccc3noc(-c4ccc(Cl)cc4)c3c2)OCCO1 | inconclusive: 39.8 µM [decreasing] | 
Cc1cccc(CNc2ccnc(-c3ccccc3CN(C)C)n2)c1 | inactive | 
O=C(OCN1C(=O)c2ccccc2C1=O)C1CCCCC1 | inconclusive: 39.8 µM [decreasing] | 
O=c1cnc2cnc(OCc3ccccc3)nc2n1Cc1ccc(F)cc1 | inconclusive: 20 µM [decreasing] | 
